The list shows a part of the results.
target: T1, MBP-FoxP1dN (Mus musculus, UniProt P58462 326-579); experiment: PD-seq (MBP pull-down with sequencing); 20 mM Tris-HCl pH 7.5, 100 mM NaCl, 1.5 mM MgCl2, 0.4 uM protein, 0.1 uM dsDNA library, 30 min, room temperature, amylose pull-down; high values mean tight binding; details: protein: recombinant; tags: His6-MBP; chain copies: 2; dsDNA, one strand shown
T1 sequence: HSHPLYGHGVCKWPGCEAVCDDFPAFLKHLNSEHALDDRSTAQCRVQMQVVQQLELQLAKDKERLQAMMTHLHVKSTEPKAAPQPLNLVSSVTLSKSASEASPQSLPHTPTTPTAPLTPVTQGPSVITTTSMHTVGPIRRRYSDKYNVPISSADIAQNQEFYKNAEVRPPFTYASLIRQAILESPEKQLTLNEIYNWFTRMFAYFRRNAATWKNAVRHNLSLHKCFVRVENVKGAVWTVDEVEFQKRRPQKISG
Method in brief: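 Protein and DNA were mixed at 0.4 µM and 0.1 µM and held for 30 min at room temperature in Tris pH 7.5 buffer with NaCl and MgCl2; the protein was a His6-MBP-tagged, N-terminally truncated mouse FoxP3 or FoxP1 fragment from E. coli, and the DNA a Klenow-filled double-stranded degenerate library. Amylose resin captured the complexes, which were washed three times. Binding is read as reads-per-million enrichment of pull-down versus input after Illumina sequencing, with replicates pooled.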

Sequence	binding signal
GATGATTGTTCTCCCAGCTGATGAATTACTATTATCGAGTAAACAAATTTTCCTAATCTTTCTGTTCAAGCGCCATCTAC	1.87 RPM ratio (pull-down/input)
GATGATTGTTCTCCCAGCTGATGAATTATGGCCCTCGAGTAAACAAATTTTCCTAATCTTTCTGTTCAAGCGCCATCTAC	0.876 RPM ratio (pull-down/input)
GATGATTGTTCTCCCAGCTGATGAATTTGCCATCTCGAGTAAACAAATTTTCCTAATCTTTCTGTTCAAGCGCCATCTAC	1.02 RPM ratio (pull-down/input)
GATGATTGTTCTCCCAGCTGATGAATTTTATATCTCGAGTAAACAAATTTTCCTAATCTTTCTGTTCAAGCGCCATCTAC	0.891 RPM ratio (pull-down/input)
GATGATTGTTCTCCCAGCTGATGAATTGGCCCCTTCGAGTAAACAAATTTTCCTAATCTTTCTGTTCAAGCGCCATCTAC	0.842 RPM ratio (pull-down/input)
GATGATTGTTCTCCCAGCTGATGAATTCTTGCTGTCGAGTAAACAAATTTTCCTAATCTTTCTGTTCAAGCGCCATCTAC	1.45 RPM ratio (pull-down/input)
GATGATTGTTCTCCCAGCTGATGAATTAATGATATCGAGTAAACAAATTTTCCTAATCTTTCTGTTCAAGCGCCATCTAC	1.11 RPM ratio (pull-down/input)
GATGATTGTTCTCCCAGCTGATGAATTTCCGGTTTCGAGTAAACAAATTTTCCTAATCTTTCTGTTCAAGCGCCATCTAC	0.821 RPM ratio (pull-down/input)
GATGATTGTTCTCCCAGCTGATGAATTTAGTGGCTCGAGTAAACAAATTTTCCTAATCTTTCTGTTCAAGCGCCATCTAC	1 RPM ratio (pull-down/input)
GATGATTGTTCTCCCAGCTGATGAATTGACTTTGTCGAGTAAACAAATTTTCCTAATCTTTCTGTTCAAGCGCCATCTAC	1.02 RPM ratio (pull-down/input)
GATGATTGTTCTCCCAGCTGATGAATTTGAACAGTCGAGTAAACAAATTTTCCTAATCTTTCTGTTCAAGCGCCATCTAC	0.84 RPM ratio (pull-down/input)
GATGATTGTTCTCCCAGCTGATGAATTCCAACTGTCGAGTAAACAAATTTTCCTAATCTTTCTGTTCAAGCGCCATCTAC	0.853 RPM ratio (pull-down/input)
GATGATTGTTCTCCCAGCTGATGAATTCCCGCCGTCGAGTAAACAAATTTTCCTAATCTTTCTGTTCAAGCGCCATCTAC	0.803 RPM ratio (pull-down/input)
GATGATTGTTCTCCCAGCTGATGAATTTGGATGCTCGAGTAAACAAATTTTCCTAATCTTTCTGTTCAAGCGCCATCTAC	1.3 RPM ratio (pull-down/input)
GATGATTGTTCTCCCAGCTGATGAATTTTAAAAGTCGAGTAAACAAATTTTCCTAATCTTTCTGTTCAAGCGCCATCTAC	0.811 RPM ratio (pull-down/input)
GATGATTGTTCTCCCAGCTGATGAATTCGCCCGCTCGAGTAAACAAATTTTCCTAATCTTTCTGTTCAAGCGCCATCTAC	0.777 RPM ratio (pull-down/input)

Sequence	binding signal
GATGATTGTTCTCCCAGCTGATGAATTATGGGGTTCGAGTAAACAAATTTTCCTAATCTTTCTGTTCAAGCGCCATCTAC	0.87 RPM ratio (pull-down/input)
GATGATTGTTCTCCCAGCTGATGAATTATTAGGATCGAGTAAACAAATTTTCCTAATCTTTCTGTTCAAGCGCCATCTAC	0.992 RPM ratio (pull-down/input)
GATGATTGTTCTCCCAGCTGATGAATTTACCCGGTCGAGTAAACAAATTTTCCTAATCTTTCTGTTCAAGCGCCATCTAC	0.927 RPM ratio (pull-down/input)
GATGATTGTTCTCCCAGCTGATGAATTTTTACGTTCGAGTAAACAAATTTTCCTAATCTTTCTGTTCAAGCGCCATCTAC	1.03 RPM ratio (pull-down/input)
GATGATTGTTCTCCCAGCTGATGAATTGGGTTAATCGAGTAAACAAATTTTCCTAATCTTTCTGTTCAAGCGCCATCTAC	0.898 RPM ratio (pull-down/input)
GATGATTGTTCTCCCAGCTGATGAATTACCGGTATCGAGTAAACAAATTTTCCTAATCTTTCTGTTCAAGCGCCATCTAC	1.05 RPM ratio (pull-down/input)
GATGATTGTTCTCCCAGCTGATGAATTCCCGGTGTCGAGTAAACAAATTTTCCTAATCTTTCTGTTCAAGCGCCATCTAC	0.755 RPM ratio (pull-down/input)
GATGATTGTTCTCCCAGCTGATGAATTACCGGTTTCGAGTAAACAAATTTTCCTAATCTTTCTGTTCAAGCGCCATCTAC	0.982 RPM ratio (pull-down/input)
GATGATTGTTCTCCCAGCTGATGAATTGTAAGTCTCGAGTAAACAAATTTTCCTAATCTTTCTGTTCAAGCGCCATCTAC	0.976 RPM ratio (pull-down/input)
GATGATTGTTCTCCCAGCTGATGAATTACGCAGTTCGAGTAAACAAATTTTCCTAATCTTTCTGTTCAAGCGCCATCTAC	1.03 RPM ratio (pull-down/input)
GATGATTGTTCTCCCAGCTGATGAATTGGTATATTCGAGTAAACAAATTTTCCTAATCTTTCTGTTCAAGCGCCATCTAC	1.24 RPM ratio (pull-down/input)
GATGATTGTTCTCCCAGCTGATGAATTAGGCGTTTCGAGTAAACAAATTTTCCTAATCTTTCTGTTCAAGCGCCATCTAC	0.871 RPM ratio (pull-down/input)
GATGATTGTTCTCCCAGCTGATGAATTGGCGTTATCGAGTAAACAAATTTTCCTAATCTTTCTGTTCAAGCGCCATCTAC	1 RPM ratio (pull-down/input)
GATGATTGTTCTCCCAGCTGATGAATTTGGTTGGTCGAGTAAACAAATTTTCCTAATCTTTCTGTTCAAGCGCCATCTAC	0.868 RPM ratio (pull-down/input)
GATGATTGTTCTCCCAGCTGATGAATTGTCGTACTCGAGTAAACAAATTTTCCTAATCTTTCTGTTCAAGCGCCATCTAC	1.07 RPM ratio (pull-down/input)
GATGATTGTTCTCCCAGCTGATGAATTCGTCTCATCGAGTAAACAAATTTTCCTAATCTTTCTGTTCAAGCGCCATCTAC	0.908 RPM ratio (pull-down/input)
